Measured values as given in patent US20220324932A1 (CSPC MEGALITH BIOPHARMACEUTICAL, published 2022).

T1: IL-2Rα (CD25) on the cell surface of mouse T cells (CTLL-2 cells; Treg cells of C57BL/6 mice) (mouse, UniProt P01590 22-268)
T1 sequence (looked up): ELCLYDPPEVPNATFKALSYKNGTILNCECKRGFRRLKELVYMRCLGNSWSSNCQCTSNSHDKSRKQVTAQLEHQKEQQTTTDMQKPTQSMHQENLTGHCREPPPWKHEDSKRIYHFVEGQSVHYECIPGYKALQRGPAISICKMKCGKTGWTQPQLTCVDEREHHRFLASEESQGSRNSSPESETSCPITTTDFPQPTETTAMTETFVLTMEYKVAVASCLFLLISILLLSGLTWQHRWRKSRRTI

T2: human IL-2Rα-His (human, UniProt P01589 22-217, limits assumed)
T2 construct: Captured on a CM-5 chip by an anti-histidine antibody; also called CD25; IL-2Rα subunit; not shown: His tag
T2 sequence (looked up): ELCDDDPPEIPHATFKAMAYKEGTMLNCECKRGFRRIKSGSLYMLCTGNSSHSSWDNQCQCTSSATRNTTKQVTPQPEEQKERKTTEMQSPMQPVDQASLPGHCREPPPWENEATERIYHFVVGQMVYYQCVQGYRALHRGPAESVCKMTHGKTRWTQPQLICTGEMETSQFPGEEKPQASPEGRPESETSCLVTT

T3: human IL-2Rβ-His (human, UniProt P14784 27-240)
T3 construct: Captured on a CM-5 chip by an anti-histidine antibody; also called CD122; IL-2Rβ subunit; not shown: His tag
T3 sequence (looked up): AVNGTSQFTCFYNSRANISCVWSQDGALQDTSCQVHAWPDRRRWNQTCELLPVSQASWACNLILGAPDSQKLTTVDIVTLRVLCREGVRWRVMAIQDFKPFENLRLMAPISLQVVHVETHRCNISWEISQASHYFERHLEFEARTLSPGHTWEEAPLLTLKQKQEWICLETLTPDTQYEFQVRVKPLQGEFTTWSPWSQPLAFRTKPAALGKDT

B1: IL-2A1 (modified IL-2 protein with engineered Q residue F43Q relative to IL-2 Aldesleukin) (ligand)
chain: not shown
notes: also called DP006A; DP006-A
B2: IL-2 Aldesleukin (human recombinant IL-2) (ligand)
chain: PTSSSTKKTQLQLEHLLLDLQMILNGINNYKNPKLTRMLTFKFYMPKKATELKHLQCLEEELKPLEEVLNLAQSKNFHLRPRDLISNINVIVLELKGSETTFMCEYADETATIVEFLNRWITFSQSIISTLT
notes: Desalanyl-1, serine-125 human IL-2 (no N-terminal alanine, C125S), not glycosylated, made in E. coli; also called Aldesleukin IL-2; parent IL-2
B3: PEG-20K-IL-2A1 (IL-2A1 conjugated with 20 kDa methoxy-PEG-amine) (ligand)
chain: not shown
modifications: 20 kDa methoxy-PEG-amine conjugated by mTGase to the engineered Q residue (F43Q)
notes: The conjugation site Q43 was mapped by LC-MS/MS only for the 30 kDa conjugate; also called DP006-A-20; 20 kDa PEG-IL-2A1
B4: PEG-30K-IL-2A1 (IL-2A1 conjugated with 30 kDa methoxy-PEG-amine) (ligand)
chain: not shown
modifications: 30 kDa methoxy-PEG-amine conjugated at Q43
notes: also called DP006-A-30; DP630a
B5: PEG-40K-IL-2A1 (IL-2A1 conjugated with 40 kDa methoxy-PEG-amine) (ligand)
chain: not shown
modifications: 40 kDa methoxy-PEG-amine conjugated by mTGase to the engineered Q residue (F43Q)
notes: also called DP006-A-40

Experiments:
[1] = molecular target: T1, IL-2Rα (CD25) on the cell surface of …; assay: cell-based or functional assay
human IL-2Rα-His [2] = molecular target: T2, human IL-2Rα-His; assay: SPR (Biacore T-200), IL-2Rα-His captured; Kd relative to Aldesleukin IL-2
Experimental: (§1) The binding affinities of modified IL-2 protein or modified IL-2 protein-PEG conjugates to IL-2Rα or IL-2Rβ were measured by SPR (Biacore T-200) and compared to that of Aldesleukin IL-2 protein. Anti-histidine antibody was coupled to the surface of a CM-5 sensor chip using EDC/NHS chemistry. For IL-2Rα binding test, human IL-2Rα-His was used as the captured ligand over the surface. For IL-2Rβ binding test, human IL-2Rβ-His was used as the captured ligand over the surface. Serial dilutions of modified IL-2 protein or modified IL-2 protein-PEG conjugates were made with Running Buffer (1×HEPES, with 0.005% Tween-20, pH 7.4). These serial dilutions were allowed to bind to the IL-2Rα-His or IL-2Rβ-His ligands for 60 seconds. Binding responses were measured in response unit (RU) and plotted against protein concentration to determine Kd values (see Table 1). The binding affinities of each construct to IL-2Rα or IL-2Rβ were further calculated as fold changes relative to those of Aldesleukin IL-2 protein to the same IL-2R subtype (see Table 1).

human IL-2Rβ-His [3] = molecular target: T3, human IL-2Rβ-His; assay: SPR (Biacore T-200), IL-2Rβ-His captured; Kd relative to Aldesleukin IL-2
Experimental: as §1

human IL-2Rα-His [4] = molecular target: T2, human IL-2Rα-His; assay: SPR (Biacore T-200), IL-2Rα-His captured by anti-histidine antibody on CM-5 chip
Experimental: as §1

human IL-2Rβ-His [5] = molecular target: T3, human IL-2Rβ-His; assay: SPR (Biacore T-200), IL-2Rβ-His captured by anti-histidine antibody on CM-5 chip
Experimental: as §1

human IL-2Rα-His [6] = molecular target: T2, human IL-2Rα-His; assay: SPR (Biacore T-200), IL-2Rα-His captured; reference itself
Experimental: as §1

human IL-2Rβ-His [7] = molecular target: T3, human IL-2Rβ-His; assay: SPR (Biacore T-200), IL-2Rβ-His captured; reference itself
Experimental: as §1

Binder | fold decrease in bioactivity in inducing CTLL-2 cell growth, compared to parent IL-2 Aldesleukin [1] [fold] | percentage of Treg cells in blood of C57BL/6 mice after treatment [1] [%] | Fold change relative to IL-2 (wt) (human IL-2Rα-His [2]) [fold] | Fold change relative to IL-2 (wt) (human IL-2Rβ-His [3]) [fold] | Kd (human IL-2Rα-His [4]) [µM] | Kd (human IL-2Rβ-His [5]) [µM] | Fold change relative to IL-2 (wt) (human IL-2Rα-His [6]) [fold] | Fold change relative to IL-2 (wt) (human IL-2Rβ-His [7]) [fold] | bioactivity in inducing CTLL-2 cell growth, compared to its parent protein IL-2A1 [1] [fold]
B1 | ~4 | 0.52 | 476 | 15.7 | 17.2 | 8.39 |  |  | 
B2 |  | 3.23 |  |  | 0.0361 | 0.536 | 1 | 1 | 
B3 |  | 0.28 |  | 8.34 |  |  |  |  | ~3
B4 |  |  |  | 10.1 |  | 5.41 |  |  | 
B5 |  |  |  | 10.9 |  | 5.85 |  |  | 
